Source: the BET-seq Pho4 binding data (Le et al. 2018)
The other results are listed elsewhere or left out. The energies were worked out here from pooled read counts, against the library average; single values are noisy.

Molecular target: T1, Pho4 (S. cerevisiae) (UniProt P07270)
T1 sequence: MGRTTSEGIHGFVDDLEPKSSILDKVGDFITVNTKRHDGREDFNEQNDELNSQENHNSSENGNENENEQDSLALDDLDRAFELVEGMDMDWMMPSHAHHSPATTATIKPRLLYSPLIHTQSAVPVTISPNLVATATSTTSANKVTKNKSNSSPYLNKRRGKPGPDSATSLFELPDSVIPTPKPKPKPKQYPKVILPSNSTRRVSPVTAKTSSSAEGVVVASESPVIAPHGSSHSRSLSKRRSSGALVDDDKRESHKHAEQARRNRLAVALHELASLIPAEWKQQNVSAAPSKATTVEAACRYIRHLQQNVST
Test: relative binding free energy (BET-seq); higher = weaker binding
Settings: reference: library average

Sequence	relative binding free energy [kcal/mol]
CTAGTCACGTGTGTGT	0.08
CGGTTCACGTGTGCAT	0.42
TAGATCACGTGTGAAG	0.33
GTGAGCACGTGGTTTT	-0.09
TTTTGCACGTGTTTTC	0.16
CGGTGCACGTGAAGGT	0.25
CCTAGCACGTGTTGGG	0.02
AGGTTCACGTGCGGTA	0.29
ATGGTCACGTGGTTCT	0.11
TTAATCACGTGCTGAT	0.2
AGGGGCACGTGGGCGC	-0.28
AGTTGCACGTGACGGG	0.08
CTAGGCACGTGGAAGG	-0.22
GTCCGCACGTGGGATG	-0.04
TCGGGCACGTGTGCTT	-0.03
TGATGCACGTGAGATG	0.2
GAGTTCACGTGGTCGG	0.32
TTGGTCACGTGGCAGC	0.04
GTTTACACGTGAATAG	0.45
ATTATCACGTGTAGTA	0.14
AGTAACACGTGTTGTG	-0.02
GGTCTCACGTGGTCGT	0.15
TGTACCACGTGATGTA	0.08
TTTGGCACGTGGTCTT	-0.07
ATATTCACGTGGTATT	0.09

Sequence	relative binding free energy [kcal/mol]
TAAAGCACGTGGGTGC	-0.24
TTTTTCACGTGTGAGA	0.27
TGTGCCACGTGTCTAG	-0.04
TTACTCACGTGTGGCT	0.18
ATTAACACGTGGGTGT	-0.1
ATATGCACGTGTTCTG	-0.04
GTTTCCACGTGGTATA	0.12
TTTCACACGTGTGTGC	0.25
GTCGGCACGTGTATAT	0.12
TGGGCCACGTGCAGGT	-0.19
TTAGGCACGTGGTGCT	-0.13
TTTCACACGTGATTTG	0.17
AATTTCACGTGTACGT	0.37
TGTATCACGTGCTGGT	0.03
ATGGACACGTGGAAAT	0.13
TTTGTCACGTGTTCCG	0.12
AGATGCACGTGGGGAT	-0.07
CTATTCACGTGTTGTG	0.17
TTTGTCACGTGCGATT	0.28
CTGTTCACGTGGGTTC	0.24
ACGTGCACGTGGGTCG	-0.29
TGACACACGTGGCGGG	0.09
TTAAGCACGTGGTGTA	-0.18
GTATGCACGTGTATTG	-0.09
TTAGACACGTGCATGG	0.07

Sequence	relative binding free energy [kcal/mol]
GACTGCACGTGGGTGG	-0.12
GGGTGCACGTGGGATA	0.05
AGAGACACGTGGGTTT	-0.01
TGTTACACGTGCTTTA	-0.08
TTGTGCACGTGTGGCC	0.07
ATCTGCACGTGGTGTT	-0.2
TGGGGCACGTGCCGTA	-0.14
GGGGTCACGTGATGGG	0.34
AAGGGCACGTGCTGGG	-0.25
ATGGTCACGTGATGCC	0.33
GGTAACACGTGGGTCT	-0.16
ATCGGCACGTGGTGAG	-0.15
GCGAACACGTGGTATG	0.1
TTGCTCACGTGATATG	0.22
TTTCACACGTGGTGGG	0.06
TAGTGCACGTGTTGAA	0.08
GCAGGCACGTGCGGTG	-0.12
TATCGCACGTGGGCTT	-0.16
TGATTCACGTGTATTC	0.2
TGTAACACGTGCAGGA	0.08
GTCTACACGTGTGGCG	0.4
ATTGTCACGTGCGCGG	0.09
CAAAGCACGTGGTGGT	-0.12
TATAGCACGTGGTTCT	-0.19
ACGAGCACGTGGTTTG	-0.16

Sequence	relative binding free energy [kcal/mol]
CGAAGCACGTGTGGTG	0.02
TGATTCACGTGGCATA	0.31
AAGTCCACGTGTAGTG	0.08
CATGGCACGTGGTTAG	-0.2
TTTTGCACGTGAGAAA	0.18
ATGGTCACGTGTGCGT	0.13
TTTAGCACGTGTGAGT	0.08
GGAATCACGTGGGGGC	0.12
GTGGCCACGTGGCTTG	-0.18
CGTGACACGTGTGTTT	-0.05
TGTTTCACGTGGGGGC	0.17
GGGGGCACGTGGGCAT	-0.11
TCAAGCACGTGTGTGA	-0.03
ATTTTCACGTGACATT	0.19
TATGCCACGTGGGGTG	-0.25
TGATGCACGTGTGTAC	0.02
CTTGTCACGTGTTGTT	-0.01
TATACCACGTGTGGTG	-0.01
TTTGCCACGTGGTGAA	-0.22
GTAAACACGTGGGCAG	-0.02
GGGGTCACGTGTGTAG	0.2
GGGATCACGTGGTATG	0.15
AAATTCACGTGAGTTG	0.34
TTGGTCACGTGTAAGC	0.28
GTAATCACGTGGTTTT	0.19

Sequence	relative binding free energy [kcal/mol]
TGACGCACGTGTTTTT	-0.14
GAGGGCACGTGAGATA	0.12
GGTGTCACGTGAGGTC	0.15
ATATACACGTGTCAGT	0.04
CTACGCACGTGGGTGT	-0.34
CTTTGCACGTGTGAAT	0.01
TGTGTCACGTGCCTTG	-0.01
CTTTTCACGTGCTGTT	0.31
AGGGACACGTGTTGTG	0.03
ATGGACACGTGTCAGG	-0.01
ATATGCACGTGTTGTC	-0.01
TGTCTCACGTGGTTCG	0.17
ATATGCACGTGTCGTC	0.13
AGTAGCACGTGTTAGG	-0.13
GGCTTCACGTGGTGTG	0.33
CCATGCACGTGCGGTG	0.15
TTGTTCACGTGCGAGG	0.26
GTAGACACGTGAAGGA	0.33
TCTATCACGTGGGGTA	-0.06
GTGCACACGTGGTGCG	-0.08
AGCTTCACGTGAAGTG	0.39
TACGGCACGTGGTGGT	-0.11
GGTAGCACGTGTCGTA	-0.15
TTCAACACGTGGTGAG	0.03
GGGAGCACGTGTGTTT	-0.07

Sequence	relative binding free energy [kcal/mol]
TGTTTCACGTGACGGA	0.35
ATATTCACGTGGTAGA	0.15
TTTTACACGTGTTACA	-0.01
TGTATCACGTGAAGAT	0.33
TGTTCCACGTGCGGTA	0.01
TTTCTCACGTGGGGTA	0.02
GCTTACACGTGTTGTG	0.13
TCAGGCACGTGAGGAG	0.09
ACGCGCACGTGGGGTT	-0.29
TGTGTCACGTGCAATA	0.05
AGTTTCACGTGGTGCT	0.21
TGGTGCACGTGGCGCG	-0.25
CTTGGCACGTGTTAAG	-0.13
TCGTGCACGTGGCTTG	-0.3
CGGTTCACGTGGTACG	0.26
GGATTCACGTGTTCTA	0.48
GTTCTCACGTGTGTGC	0.29
GTTGACACGTGCTATG	0.02
CGAGTCACGTGGGGGT	-0.11
TTTAGCACGTGTGCTC	0.07
AAGGTCACGTGTGGGT	0.14
